This note sets out measurements from ChEMBL document CHEMBL4888484, “Replenishing the malaria drug discovery pipeline: Screening and hit evaluation of the MMV Hit Generation Library 1 (HGL1) against asexual blood stage Plasmodium falciparum ,using a nano luciferase reporter read-out” (2022).

Screen size: about 150,000 compounds; about 540 (0.36%) showed an effect of 50% or more. Some of the results follow.

This experiment deals with Plasmodium falciparum. The experiment is described as follows: Primary screen in NF54 nanoGlo assay, in single point, at 2uM, 72h; a lower Z score goes with more inhibition. The class given is functional, Erythrocyte. The conditions noted are these: timepoint 72 hour.
Consider `CCCN1CCN(c2ncc(C#N)c(N)n2)CC1=O`, for which the % Inhibition (commonly the change of the read-out against control, counted positive when it falls) was -16% and the Z score came to 1.51.
For `CC(C)Cc1noc([C@@H](C)NC(=O)OC(C)(C)C)n1`, the “% Inhibition” value is recorded as -6% and the Z score is listed as 0.58.
For `NC(=O)c1c(Cl)cccc1NCc1noc(Cc2ccccc2)n1` the same measures were 33% and -4.41.
The corresponding values for `Cc1cc(C(=O)N2CC[C@@H](N)C2)c2ccc(Br)cc2n1` are -1% and 0.12.
With `Cc1cnc(C(=O)NC[C@H]2Cn3cccc3C(=O)N2C)cn1`, the “% Inhibition” value was -9% and the Z score worked out at 1.77.
For `Nc1nc(-c2cccnc2)nc(-c2cccnc2)n1` the same measures were -17% and 2.13.
For `Cc1cscc1NC(=O)NCCc1cn[nH]c1`, the “% Inhibition” value came out at 0% and the Z score is recorded as 0.05.
`Cc1scc(C(=O)N[C@@H](C(=O)O)C(C)C)c1C`: the “% Inhibition” value is reported as -9% and the Z score was determined as 1.16.
The corresponding values for `CC(C)CCn1c(=O)c2sccc2n(CC(=O)NC[C@H]2CCCO2)c1=O` are 27% and -3.09.
As for `CC(NC(=O)Nc1ccccc1)C(c1cccs1)N1CCN(c2ccccc2)CC1` (configuration not stated), the “% Inhibition” value is -5% and the Z score came out at 0.83.
The corresponding values for `Cc1cc(C(=O)Nc2ccc(CCN3CCC(O)CC3)cc2)no1` are -4% and 0.77.
Consider `CC1CN(C(=O)c2[nH]nc(C3CC3)c2Br)CC(C)O1` (configuration not stated), for which the “% Inhibition” value came out at 15% and the Z score is reported as -1.71.
Consider `COCCCC(C)C(=O)N1CCCC(N2CCCCC2)C1` (configuration not stated), for which the “% Inhibition” value was -11% and the Z score was found to be 1.41.
For `CC1CC(C(=O)N2CCc3cc(Cl)c(Cl)cc3C2C)CCO1` (configuration not stated) the same measures were -8% and 0.96.
The corresponding values for `O=C(NCc1ccc(F)cc1)N1CCC2(CC1)[C@H](O)C[C@@H]2O` are -5% and 1.06.
The corresponding values for `Cn1ccc2cc([C@@H](O)CNC(=O)NC3CCCC3)ccc21` are -18% and 2.36.
Regarding `Oc1ccc([C@@H](O)Cn2cc(-c3cc(CN4CCCC4)cs3)nn2)cc1`, the “% Inhibition” value was -22% and the Z score came out at 2.81.
Turning to `CCn1cc(C(=O)NC2CCN(c3ccc(Cl)cc3)CC2)nn1`, the “% Inhibition” value is -4% and the Z score was 0.57.
For `CC(=O)Nc1cccc(Nc2nc(C)nc3c2CCC3)c1` the same measures were 10% and -1.79.
Regarding `CC(C)CN(C)C(=O)C[C@H]1C(=O)NCCN1C`, the “% Inhibition” value is -9% and the Z score came to 1.69.
`COc1c(F)cc(CN2C[C@@H](CN3CCCCC3)[C@@H](CO)C2)cc1Cl`: the “% Inhibition” value is recorded as -9% and the Z score was 1.4.
The corresponding values for `COc1ccc(OC)c(S(=O)(=O)N2CCCCCCC2)c1` are -15% and 1.93.
For `CCCc1ccc(-c2nccn2CCN2CCCC2=O)o1`, the “% Inhibition” value is recorded as 0% and the Z score is reported as 0.
Turning to `CC(=O)N[C@H]1C[C@H]2CN(C(=O)c3sc(C)nc3C)[C@@H](CC(C)C)C(=O)N2C1`, the “% Inhibition” value is recorded as -6% and the Z score is 0.8.
With `O=C(O)c1cccc(-c2nc(-c3cscn3)cs2)c1`, the “% Inhibition” value is recorded as -13% and the Z score was found to be 1.37.
For `Cc1nn(C(C)(C)C)c2nc(C3CC3)cc(C(=O)N(C)c3ccccc3)c12` the same measures were 55% and -8.04.
`CCOc1ccc(C(=O)NCc2nc(COC)no2)o1`: the “% Inhibition” value is given as 3% and the Z score was -0.57.
Regarding `CN(C)C(=O)c1cccc(NC2CCS(=O)(=O)CC2)n1`, the “% Inhibition” value was -7% and the Z score is given as 0.85.
As for `NC(=O)N1CCCC(C(=O)N2CCCC2c2ccc(F)c(F)c2)C1` (configuration not stated), the “% Inhibition” value turned out to be 0% and the Z score was found to be 0.02.
In the case of `Cc1ccc(CNC(=O)[C@@H](C)C2CCN(C(=O)c3cc4ccccc4[nH]3)CC2)o1`, the “% Inhibition” value is on record as -11% and the Z score was found to be 1.04.
The corresponding values for `Cc1ccccc1S(=O)(=O)N1CCC[C@@]2(C1)Nc1cccnc1N=C2NC1CCCC1` are 32% and -3.66.
For `c1cc2c(cc1-c1nnc3n1CCOC3)OCCO2` the same measures were 2% and -0.22.
Turning to `Cc1ccccc1OCC(=O)NS(C)(=O)=O`, the “% Inhibition” value is -1% and the Z score was 0.11.
For `CCN(CC(=O)NCc1cccs1)C(=O)c1cccn1C` the same measures were -3% and 0.49.
For `Cc1nscc1C(=O)Nc1ccnn1Cc1ccsc1` the same measures were -5% and 0.47.
Consider `COc1ccc(NS(=O)(=O)c2ccc(Cl)c(NC(=O)COc3ccc4ccccc4c3)c2)cc1Br`, for which the “% Inhibition” value was -6% and the Z score came to 0.79.
Regarding `Cc1ccc(-n2ncc3c(N)c4c(nc32)CC(C)(C)CC4=O)cc1C`, the “% Inhibition” value is -22% and the Z score stood at 2.89.
The corresponding values for `Cc1nc2c(C(=O)N3CCOCC34CC4)cccc2o1` are 8% and -0.99.
The corresponding values for `COc1cccc(NC(=O)NCCc2cn[nH]c2)n1` are -1% and 0.23.
The corresponding values for `CC(C)N(C)CC(=O)N1CCC[C@@]2(CCC(=O)N(Cc3cccnc3)C2)C1` are -18% and 2.82.
`O=C(c1cccnc1)N1N=C2CCCCC2C1(O)C(F)(F)F` (configuration not stated): the “% Inhibition” value was -7% and the Z score stood at 1.3.
The corresponding values for `C[C@@H](CCc1ccccc1)NC(=O)NCCc1ccco1` are -5% and 0.6.
The corresponding values for `CC(=O)N(C(=O)c1ccccc1)[C@H]1[C@@H](OCc2ccccc2)O[C@@H]2COC(c3ccccc3)O[C@H]2[C@@H]1OC(=O)c1ccccc1` (some centres not stated) are -15% and 2.74.
For the compound `CCCn1cnnc1CN(C)C(=O)NCc1csc2c1CCCC2`, the “% Inhibition” value came to 1% and the Z score is given as -0.21.
For `C[C@H]1Cc2ccccc2N1C(=O)c1cnns1` the same measures were -4% and 0.86.
Take `Cc1nc(Nc2ccc(F)cn2)sc1C(=O)NC1CC1`: the “% Inhibition” value was -5% and the Z score is reported as 0.85.
For `OC[C@]1(F)CCN(Cc2nc3ccc(F)cc3o2)C1` the same measures were 21% and -2.57.
For the compound `O=C(c1cc(-c2ccccc2)[nH]n1)N1CCN(c2cnccn2)CC1`, the “% Inhibition” value is -5% and the Z score was found to be 0.92.
Take `CCCN1C[C@@H](CNC(=O)NCc2ccc3occc3c2)CC1=O`: the “% Inhibition” value is reported as -1% and the Z score is on record as 0.25.
Consider `CCc1csc(NC2CC[C@@H](O)[C@@H](O)C2)n1` (some centres not stated), for which the “% Inhibition” value is recorded as -5% and the Z score is 0.82.
On to `COc1ccc(O[C@H]2COCCN(C(=O)CC(C)(C)C)C2)cc1`, for which the “% Inhibition” value is reported as -2% and the Z score turned out to be 0.44.
For `CCc1ccccc1NC(=O)N1CCC(n2cnc3cccnc32)CC1` the same measures were -12% and 1.59.
For `C[C@](O)(CNc1nc(C2CCOCC2)ns1)c1cccc(F)c1` the same measures were -12% and 2.32.
The corresponding values for `CCc1cc(C(=O)N[C@@H](C)Cn2cccn2)sc1C` are -6% and 1.04.
As for `O=C(N[C@@H](C1CCCC1)C(F)(F)F)C1CCC(F)(F)CC1`, the “% Inhibition” value is -8% and the Z score is given as 0.81.
For `O=C(c1c[nH]nc1-c1ccsc1)N1CC[C@@H](O)C1`, the “% Inhibition” value is recorded as -6% and the Z score stood at 0.89.
The corresponding values for `CCn1nncc1CN1C[C@H](C)Oc2c(Cl)cccc21` are 0% and -0.07.
The corresponding values for `C[C@H](O)c1nc(C2CCOCC2)nn1-c1ccc2c(c1)CCC2` are 9% and -1.13.
The corresponding values for `O=C(O)c1cc(NS(=O)(=O)c2cc(F)ccc2F)ccc1N1CCN(C2CCCCC2)CC1` are -1% and 0.08.
`CCc1cnc(CN2CCC[C@H](c3noc(C(C)C)n3)C2)o1`: the “% Inhibition” value is recorded as -3% and the Z score turned out to be 0.23.
The corresponding values for `Cc1n[nH]cc1CN(C)Cc1ccnc2ccccc12` are -2% and 0.33.
The corresponding values for `Cc1ccc(-c2nn(-c3nc(-c4ccccc4)cc(C(F)(F)F)n3)c(-c3ccc(C)cc3)c2Cl)cc1` are 33% and -3.78.
The corresponding values for `COc1cccc(CNc2ccc3nn[nH]c3c2)c1O` are -11% and 1.36.
As to `CCn1cnnc1CNC(=O)[C@@H]1CCCN1C(=O)OC(C)(C)C`, the “% Inhibition” value was -6% and the Z score came out at 0.94.
For `Brc1cnn(CCn2cccn2)c1` the same measures were -11% and 1.3.
Take `Cc1ccc(N2C[C@@H](c3nc(CCS(=O)(=O)c4ccccc4)no3)CC2=O)cc1`: the “% Inhibition” value is reported as -9% and the Z score is recorded as 0.88.
Regarding `CCC(=O)Nc1ccc(Oc2c(C)c(C(=O)O)nn2C(C)(C)C)c(S(=O)(=O)N[C@@H](C)CC)c1`, the “% Inhibition” value is listed as -11% and the Z score is 1.03.
For `CO[C@@H](C)c1nc(C)c(-c2nc(-c3ccc(C(N)=O)cc3)no2)s1` the same measures were -10% and 1.13.
Consider `Cc1ocnc1C(=O)N1CCN(Cc2ccccc2)[C@@H]2CS(=O)(=O)C[C@@H]21`, for which the “% Inhibition” value is reported as -7% and the Z score is 1.31.
As for `CCC#CCN1CC=C(CNC(=O)c2cccc(OC)c2)CC1`, the “% Inhibition” value is given as -16% and the Z score stood at 2.33.
Consider `C[C@@H]1Oc2ccc(C(=O)C3CCN(c4cccc(C(=O)O)n4)CC3)cc2NC1=O`, for which the “% Inhibition” value is listed as -8% and the Z score was 1.54.
In the case of `O=C(Cc1ccccc1)N1C[C@H](c2ncco2)C2(CCN(CC3CC3)CC2)C1`, the “% Inhibition” value is -3% and the Z score was determined as 0.45.
For `CCc1nn(Cc2nnsc2Cl)c(=O)c(C#N)c1CC` the same measures were -15% and 2.84.
For `CN(C(=O)CCS(C)(=O)=O)c1ccc(Cl)cn1`, the “% Inhibition” value is recorded as -4% and the Z score is reported as 0.53.
For `C=C(C)COc1ccccc1C(=O)N1CCC[C@@]2(CCNC2)C1` the same measures were -15% and 1.44.
For `CN(Cc1ccccc1)c1ncccc1CNc1ncccc1C(=O)O`, the “% Inhibition” value is recorded as -1% and the Z score is 0.2.
For `CCN(C[C@H](C)C#N)S(=O)(=O)N(C)Cc1cc(C)ccc1F` the same measures were -2% and 0.33.
With `CCCC1CCC(c2nc(-c3cccnc3)no2)CC1` (configuration not stated), the “% Inhibition” value stood at 4% and the Z score is listed as -0.51.
For `CN(Cc1ccco1)C(=O)NCC1(c2ccccc2)CC1` the same measures were 2% and -0.16.
As to `Cc1ccc(NC(=O)N2CC(Cn3cncn3)C2)cc1C`, the “% Inhibition” value was -14% and the Z score is 1.77.
For the compound `Cc1cc(C(=O)N2CC[C@H]3C(=O)N(CC(C)C)CC(=O)N3CC2)no1`, the “% Inhibition” value was -3% and the Z score was 0.57.
`OCCc1ccccc1-n1ccnc1-c1cccc2nonc12`: the “% Inhibition” value is -5% and the Z score was 0.74.
Turning to `CN(C)c1noc(CNC(=O)N2CCC[C@H](c3nc4c(s3)CCCC4)C2)n1`, the “% Inhibition” value is -12% and the Z score amounted to 1.42.
The corresponding values for `O=C(N1CCCC1)N1c2ccccc2CCc2ccccc21` are -7% and 1.32.
For `CO[C@@H](C)C(=O)Nc1cc(F)ccc1C(C)=O` the same measures were 29% and -3.26.
For `COc1c(C)cc([C@H]2CCc3nc(C(=O)NC4CCN(Cc5ccccc5)CC4)cn3C2)cc1C` the same measures were 8% and -1.4.
